Experimental findings from the antibiotic and cytotoxicity screens of Wong et al. (2023) are described below.

One experiment has as its system HSkMC. Nature of the experiment: cytotoxicity call (relative viability < 0.9). The note with it: 10 µM.
The next experiment concerns HepG2. Kind of experiment: cytotoxicity call (relative viability < 0.9). To be noted: 10 µM.
A further experiment has as its system S. aureus RN4220. Kind of experiment: growth inhibition call (relative growth <= 0.2). To be noted: 50 µM.

Each structure is given as a SMILES string. The list shows a part of the results.

With `C[C@@H]1CN([C@@H](C)CO)C(=O)Cc2cc(NC(=O)Nc3ccc(C(F)(F)F)cc3)ccc2O[C@@H]1CN(C)Cc1ccc2c(c1)OCO2`, the cytotoxicity call in the experiment with HSkMC and in the experiment on HepG2 was “active” in each case. In addition, the growth inhibition call in the experiment with S. aureus RN4220 was “inactive”.
Take `C[C@H](CO)N1C[C@H](C)[C@H](CN(C)Cc2ccc(C(=O)Nc3ccccc3N)cc2)OCc2cnnn2CCCC1=O`: the cytotoxicity call in the experiment with HSkMC and with HepG2 was “inactive” throughout. Moreover, the growth inhibition call in the experiment on S. aureus RN4220 was “inactive”.
For the molecule `C[C@@H]1CN([C@@H](C)CO)C(=O)Cc2cc(NC(=O)CCC(F)(F)F)ccc2O[C@H]1CN(C)C(=O)Nc1ccc(C(F)(F)F)cc1`, the cytotoxicity call in the experiment with HSkMC and in the experiment with HepG2 was “inactive” in each case. For the same molecule, the growth inhibition call in the experiment on S. aureus RN4220 was “inactive”.
For the molecule `COc1ccc(S(=O)(=O)N(C)C[C@H]2Oc3ccc(NS(=O)(=O)c4cn(C)cn4)cc3C(=O)N([C@H](C)CO)C[C@H]2C)cc1`, the cytotoxicity call in the experiment on HSkMC and with HepG2 was “inactive” in each case. Also, in the experiment on S. aureus RN4220, the growth inhibition call is “inactive”.
Consider `CO[C@H]1CN(C)C(=O)c2cc(NC(=O)c3ccccc3)ccc2OC[C@@H](C)N(C(=O)CN(C)C)C[C@@H]1C`, for which the cytotoxicity call in the experiment on HSkMC and in the experiment on HepG2 was “inactive” in each case. For the same molecule, in the experiment with S. aureus RN4220, the growth inhibition call was “inactive”.
`COC(=O)CCCCCCC(=O)N/N=C/[C@H](O)[C@@H](O)[C@H](O)CO`: the cytotoxicity call with HSkMC and with HepG2 was “inactive” each time. Moreover, the growth inhibition call in the experiment on S. aureus RN4220 is “inactive”.
As for `COc1ccc2c3c([nH]c2c1)[C@H](CO)N(C[C@]13CCN(CC1)C(=O)Nc1ccccc1)C(=O)Nc1ccc(cc1)F`, the cytotoxicity call in the experiment on HSkMC is “inactive”. Further, the cytotoxicity call in the experiment with HepG2 is “active”. In addition, the growth inhibition call in the experiment on S. aureus RN4220 was “inactive”.
Regarding `C[C@H](CO)N1C[C@H](C)[C@@H](CN(C)Cc2ccncc2)Oc2ccc(NC(=O)CCCN(C)C)cc2C1=O`, the cytotoxicity call in the experiment with HSkMC and in the experiment with HepG2 was “inactive” each time. In the experiment with S. aureus RN4220, the growth inhibition call was “inactive”.
With `C[C@H]1CCCCO[C@@H](CN(C)Cc2ccccc2)[C@@H](C)CN([C@@H](C)CO)C(=O)c2cc(NC(=O)Nc3ccc(C(F)(F)F)cc3)ccc2O1`, the cytotoxicity call in the experiment with HSkMC and in the experiment on HepG2 was “active” in each case. Besides, the growth inhibition call with S. aureus RN4220 is “inactive”.
Turning to `C[C@H]1CN([C@@H](C)CO)C(=O)c2cc(NC(=O)CCCN(C)C)ccc2O[C@@H]1CN(C)S(=O)(=O)c1cccs1`, the cytotoxicity call in the experiment with HSkMC and with HepG2 was “inactive” each time. Moreover, the growth inhibition call in the experiment on S. aureus RN4220 was “inactive”.
With `Cc1noc(C)c1S(=O)(=O)Nc1ccc2c(c1)C(=O)N([C@@H](C)CO)C[C@H](C)[C@H](CN(C)Cc1ccccc1)OCCCC[C@H](C)O2`, the cytotoxicity call in the experiment on HSkMC and with HepG2 was “inactive” each time. In addition, the growth inhibition call in the experiment on S. aureus RN4220 is “inactive”.
As to `C[C@H](CO)N1C[C@H](C)[C@H](CN(C)S(=O)(=O)c2ccccc2F)Oc2ncc(C#Cc3cccnc3)cc2C1=O`, the cytotoxicity call with HSkMC and in the experiment with HepG2 was “inactive” in each case. Moreover, in the experiment on S. aureus RN4220, the growth inhibition call is “inactive”.
Take `C[C@H](CO)N1C[C@H](C)[C@H](CN(C)S(=O)(=O)c2ccccc2F)Oc2cc(C#Cc3ccccc3)ccc2S1(=O)=O`: the cytotoxicity call with HSkMC and in the experiment on HepG2 was “inactive” each time. In addition, the growth inhibition call in the experiment on S. aureus RN4220 was “inactive”.
`CO[C@@H](CN(C)S(=O)(=O)c1cccc(Cl)c1)[C@@H](C)CN([C@@H](C)CO)S(=O)(=O)c1cccc(Cl)c1`: the cytotoxicity call with HSkMC and in the experiment with HepG2 was “inactive” throughout. For the same molecule, in the experiment on S. aureus RN4220, the growth inhibition call is “inactive”.
Turning to `C[C@H](CO)N1C[C@H](C)[C@H](CN(C)Cc2ccc(C(F)(F)F)cc2)Oc2ccc(NC(=O)Cc3cn(C)c4ccccc34)cc2CC1=O`, the cytotoxicity call in the experiment on HSkMC and with HepG2 was “inactive” throughout. For the same molecule, in the experiment on S. aureus RN4220, the growth inhibition call was “inactive”.
`COc1ccc(NC(=O)Nc2ccc3c(c2)C(=O)N([C@@H](C)CO)C[C@@H](C)[C@H](CN(C)S(C)(=O)=O)O3)cc1`: the cytotoxicity call with HSkMC and in the experiment with HepG2 was “inactive” throughout. Also, the growth inhibition call in the experiment on S. aureus RN4220 was “inactive”.
Turning to `CN(CCCCCCCCCCN(C)C(=O)Oc1cccc([N+](C)(C)C)c1)C(=O)Oc1cccc([N+](C)(C)C)c1`, the cytotoxicity call in the experiment on HSkMC and in the experiment on HepG2 was “inactive” in each case. Also, the growth inhibition call with S. aureus RN4220 was “active”.
Consider `c1ccc(C(c2c[nH]c3ccccc23)c2c[nH]c3ccccc23)nc1`, for which the cytotoxicity call with HSkMC and in the experiment with HepG2 was “inactive” throughout. The growth inhibition call in the experiment with S. aureus RN4220 is “inactive”.
Turning to `C[C@@H]1CN([C@@H](C)CO)C(=O)c2cc(C#Cc3ccc(F)cc3)cnc2O[C@@H]1CN(C)Cc1ccccn1`, the cytotoxicity call in the experiment with HSkMC and in the experiment with HepG2 was “inactive” each time. Besides, the growth inhibition call in the experiment on S. aureus RN4220 is “inactive”.
With `COc1ccc2c3c(n(c2c1)C)[C@H](CO)N(C[C@]13CCN(CC1)C(=O)c1ccncc1)C(=O)c1cnccn1`, the cytotoxicity call with HSkMC and in the experiment on HepG2 was “inactive” each time. Also, in the experiment on S. aureus RN4220, the growth inhibition call is “inactive”.
For the molecule `C[C@@H]1CN([C@H](C)CO)C(=O)Cc2cc(NS(C)(=O)=O)ccc2O[C@@H]1CN(C)S(=O)(=O)c1ccc(Cl)cc1`, the cytotoxicity call with HSkMC and with HepG2 was “inactive” throughout. The growth inhibition call with S. aureus RN4220 is “inactive”.
For the molecule `C[C@H](CO)N1C[C@H](C)[C@H](CN(C)S(=O)(=O)c2cccs2)Oc2ccc(NC(=O)Nc3cccc4ccccc34)cc2CC1=O`, the cytotoxicity call in the experiment with HSkMC and in the experiment on HepG2 was “inactive” each time. For the same molecule, in the experiment on S. aureus RN4220, the growth inhibition call was “inactive”.
As to `CN(C)c1ccnc(CNS(C)(=O)=O)n1`, the cytotoxicity call with HSkMC and in the experiment on HepG2 was “inactive” in each case. Moreover, the growth inhibition call in the experiment with S. aureus RN4220 was “inactive”.
As to `C[C@H]1CN([C@@H](C)CO)C(=O)c2c(c3ccccc3n2C)-c2ccccc2CO[C@H]1CN(C)C(=O)Nc1ccc(F)cc1`, the cytotoxicity call in the experiment on HSkMC (human skeletal muscle cells) and in the experiment on HepG2 was “inactive” throughout. In the experiment on S. aureus RN4220, the growth inhibition call was “inactive”.
For `COC(=O)[C@H](Cc1ccccc1)N1CC(/C=C/C2CC2)=C[C@@H]1[C@@H](O)CCn1cc(-c2ccc(C(=O)NO)cc2)nn1`, the cytotoxicity call in the experiment with HSkMC and with HepG2 was “inactive” each time. Besides, the growth inhibition call in the experiment with S. aureus RN4220 is “inactive”.
For `O=C(C[C@H]1C=C[C@@H](NC(=O)Cc2ccccn2)[C@@H](CO)O1)NCCc1ccncc1`, the cytotoxicity call with HSkMC and in the experiment on HepG2 was “inactive” each time. The growth inhibition call in the experiment on S. aureus RN4220 was “inactive”.
With `COC(=O)C[C@H]1CC[C@@H]2[C@@H](COc3ccc(NS(=O)(=O)c4ccccc4Cl)cc3C(=O)N2C)O1`, the cytotoxicity call in the experiment with HSkMC and in the experiment on HepG2 was “inactive” in each case. Moreover, the growth inhibition call with S. aureus RN4220 is “inactive”.
With `Cc1cccc(-c2nc3ccccc3n2CCC(C)C)c1`, the cytotoxicity call in the experiment with HSkMC and in the experiment with HepG2 was “inactive” throughout. Moreover, the growth inhibition call in the experiment with S. aureus RN4220 is “inactive”.
